Measured values published in paper PMC6721692, “Extracellular Juxtamembrane Motif Critical for TrkB Preformed Dimer and Activation” (Cells, 2019).

Molecular target: the molecule itself
Experiment: native gel or EMSA; purified recombinant TrkB ECD (0.33 μM) without BDNF, overnight at 4 °C; native PAGE with neither SDS nor β-ME, Western blot

B1: TrkBECD365 (human TrkB extracellular domain 1 to domain 5, without EJM) (domain or fragment)
chain: not shown
notes: A gp67 signal peptide was put at the N-terminus for secretion (pFastBac Dual); also called TrkB ECD lacking EJM; source: baculovirus-infected SF9 cells, secreted, purified (Ni-NTA, Superdex-200); not shown: His6, C-terminal, kept
For B1, the “stoichiometry N” value was 2.
